# From paper PMC4336329 (PLoS ONE, 2015)
# Out of some 310,000 compounds screened, about 14,000 (4.5%) showed an effect of 50% or more. The effect is printed as a negative number. The list shows a part of the results.
# Target: human ether-à-go-go-related gene (hERG) potassium channel (human, UniProt Q12809)
# Assay: primary screen, population patch clamp on CHO cells stably expressing hERG
# 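Further: peak tail current of the secondary pulse compared with the same well before compound.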
# Chain of human ether-à-go-go-related gene (hERG) potassium channel (Q12809 whole entry, looked up): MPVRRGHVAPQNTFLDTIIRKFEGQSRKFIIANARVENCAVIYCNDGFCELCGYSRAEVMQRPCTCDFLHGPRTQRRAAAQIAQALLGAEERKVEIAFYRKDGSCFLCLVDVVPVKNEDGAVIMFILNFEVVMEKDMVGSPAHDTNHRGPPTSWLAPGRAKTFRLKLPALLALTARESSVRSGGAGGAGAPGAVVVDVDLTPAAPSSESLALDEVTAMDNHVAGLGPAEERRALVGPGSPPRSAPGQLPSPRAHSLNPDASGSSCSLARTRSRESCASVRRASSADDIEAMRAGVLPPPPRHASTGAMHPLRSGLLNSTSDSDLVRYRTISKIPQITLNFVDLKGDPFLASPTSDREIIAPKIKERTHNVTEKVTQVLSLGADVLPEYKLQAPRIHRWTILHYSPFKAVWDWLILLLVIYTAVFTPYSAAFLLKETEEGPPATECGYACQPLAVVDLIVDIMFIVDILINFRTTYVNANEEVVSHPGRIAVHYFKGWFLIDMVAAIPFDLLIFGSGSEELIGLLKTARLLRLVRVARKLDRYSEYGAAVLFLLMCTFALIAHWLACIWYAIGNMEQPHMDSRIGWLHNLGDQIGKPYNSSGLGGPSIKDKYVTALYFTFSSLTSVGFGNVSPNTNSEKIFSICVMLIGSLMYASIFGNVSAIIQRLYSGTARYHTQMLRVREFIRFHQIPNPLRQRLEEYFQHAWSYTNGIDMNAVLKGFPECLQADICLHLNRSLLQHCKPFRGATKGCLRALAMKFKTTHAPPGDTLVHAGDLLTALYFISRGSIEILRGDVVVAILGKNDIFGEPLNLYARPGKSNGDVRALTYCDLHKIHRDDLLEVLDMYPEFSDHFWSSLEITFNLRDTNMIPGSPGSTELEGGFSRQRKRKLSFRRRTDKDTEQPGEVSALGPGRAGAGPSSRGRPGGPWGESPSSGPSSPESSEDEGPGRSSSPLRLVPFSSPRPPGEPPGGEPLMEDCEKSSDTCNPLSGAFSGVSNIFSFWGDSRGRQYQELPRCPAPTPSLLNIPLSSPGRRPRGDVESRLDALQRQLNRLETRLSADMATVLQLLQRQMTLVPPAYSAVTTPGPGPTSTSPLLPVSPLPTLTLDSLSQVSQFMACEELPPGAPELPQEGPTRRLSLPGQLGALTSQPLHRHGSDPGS
row,SMILES,"hERG current change (%, negative = inhibition) at 10uM"
1,CCOC(=O)C(Cc1ccc(O)cc1)NC(=O)CCc1c[nH]c2ccccc12 (stereo not shown),0.9%
2,O=C(NCc1ccccc1)C(c1cccs1)N(Cc1cccs1)C(=O)c1cnccn1 (stereo not shown),-24.5%
3,CCSc1nnc(NC(=O)CSc2nnc(CNC(=O)c3ccccc3F)o2)s1,3.38%
4,COc1ccc(-c2nn(-c3ccccc3)cc2C(=O)N(C)CC(=O)Nc2ccc(N3CCOCC3)cc2)cc1,8.82%
5,O=[N+]([O-])c1cc(Cl)ccc1Oc1ccc(-c2nnco2)cc1,20.2%
6,COc1ccc(-c2csc(NC(=O)CN3C(=O)NC4(CCCC4)C3=O)n2)cc1OC,8.24%
7,CCN1C2=NCCCN2c2ccccc21.Cl,1.64%
8,C=CCc1cccc(CNc2nc3ccccc3n2CC)c1O,4.33%
9,CN(C)S(=O)(=O)c1cccc(COc2ccccc2C(=O)Nc2ccccc2)c1,-14.4%
10,COCCn1cnnc1SCC(=O)Nc1cccc(S(=O)(=O)N2CCCCC2)c1,-17.8%
11,Cc1cc(C(F)(F)F)nn1CC(=O)NCc1ccccc1,6.58%
12,CCOC(=O)/C=C/[C@H]1CC(c2ccccc2)(c2ccccc2)CO1,12%
13,O=C(CSc1nnc(C2CC2)n1C1CC1)Nc1cccc(Br)c1,-75.1%
14,O=C1c2ccccc2C(=O)N1c1ccc(S(=O)(=O)N2CCN(c3ccccc3)CC2)cc1,-0.796%
15,CN(/N=C/c1ccco1)C1=NS(=O)(=O)c2ccccc21,4.85%
16,Cc1ccc(C(=O)Nc2sc3c(c2C(=O)NCc2ccco2)CCCC3)cc1,8.5%
17,N/N=C(\c1ccccc1)c1cc(Br)ccc1N,2.09%
18,C1CCN=C(NC23CC4CC(CC(C4)C2)C3)CC1,20.9%
19,CCCCOc1ccc(NC(=O)CSCC(=O)OCC)cc1,6.39%
20,CCOC(=O)C1CCN(S(=O)(=O)c2ccccc2)CC1,9.46%
21,CCOC(=O)c1ccc2nc(C)c(C)nc2c1,-2.88%
22,COc1ccc(NC(=O)CO/N=C(\C)c2cccs2)cc1,0.991%
23,CC(=O)Nc1ccc(S(=O)(=O)N2CCN(c3ncccn3)CC2)cc1,6.13%

row,SMILES,"hERG current change (%, negative = inhibition) at 10uM"
1,CCOc1ccc(N2C(=O)CC(NC3CCCCNC3=O)C2=O)cc1 (stereo not shown),-7.82%
2,Cc1cccc(NC(=S)NNc2cccc(Cl)c2)c1,6.84%
3,Cc1ccc(NC(=O)COC(=O)c2cccnc2Cl)cc1S(=O)(=O)N1CCCCC1,-16.5%
4,CCCCN(CC(=O)NCc1ccc(Cl)cc1)S(=O)(=O)c1ccc2c(c1)OCCO2,-5.15%
5,Cc1ccc(/C=C/C(=O)NCCCc2ccccc2)cc1,7.58%
6,Cc1cc(C)n2cc(CSc3ncccc3C(=O)O)nc2n1,2.34%
7,Cl.Nc1ccc2nc(C(F)(F)F)[nH]c2c1,18%
8,C=CCNc1ccc(N2C(=O)C3CCC(C)CC3C2=O)cc1[N+](=O)[O-] (stereo not shown),-2.6%
9,Cc1ccc(NC(=S)N(CCN(C)C)C(C)c2ccco2)cc1Cl (stereo not shown),-34.1%
10,Cc1cccc(CSC2=NCCN2C(=O)c2ccco2)c1,-1.92%
11,Cc1ccc(-c2c[n+](CC(=O)Nc3ccc(C)cc3C)c3n2CCC3)cc1.[Cl-],-30.8%
12,Cc1ccccc1C(=O)N1CCC(C(=O)NN2C(=O)NC3(CCCCC3)C2=O)CC1,11.9%
13,Cc1ccc(SC(CC(=O)c2ccc(C(C)(C)C)cc2)C(=O)O)cc1 (stereo not shown),3.76%
14,COc1ccccc1N1CCN(Cc2cccs2)CC1,-9.46%
15,CC(C)c1ccc(N(CC(=O)NCc2ccco2)C(=O)CCC(=O)Nc2ccccn2)cc1,1.81%
16,CCCC(=O)NC(=S)Nc1cccc(Cl)c1N1CCCCC1,14.1%
17,O=C(Nc1ccc(NC(=O)C2CC2)cc1)c1cccs1,-12.8%
18,N#Cc1cc(C(=O)c2cc(F)ccc2O)cn(-c2nccs2)c1=O,12%
19,COc1ccc2nc3oc(C(=O)N4CCCCC4)cc3cc2c1,-22.6%
20,COC(=O)c1ccccc1NC(=O)C1CCN(S(C)(=O)=O)CC1,1.04%
21,COc1ccc(N2CCN(C(=O)CN3C(=O)C4CC=CCC4C3=O)CC2)cc1 (stereo not shown),12.3%
22,FC(F)(F)c1cnc(Oc2ccccc2-c2nnco2)c(Cl)c1,5.65%
23,O=c1[nH]c2c(c(=O)n1C1CCCCC1)CCC2,6.39%

row,SMILES,"hERG current change (%, negative = inhibition) at 10uM"
1,COC(=O)c1ccc(CN2C(=O)c3ccccc3S2(=O)=O)cc1,-19%
2,Cc1ccc(S(=O)(=O)N2CCN(C(=O)CN3CCOCC3)C2C(C)C)cc1 (stereo not shown),-5.14%
3,C[C@H](CCC(=O)O)[C@H]1CC[C@H]2[C@@H]3[C@H](O)C[C@@H]4C[C@H](O)CC[C@]4(C)[C@H]3CC[C@]12C,13.8%
4,CCOC(=O)CN1CC23C=CC(O2)C(C(=O)Nc2cc(OC)ccc2OC)C3C1=O (stereo not shown),-3.04%
5,CN(CCc1ccccn1)c1ccc([N+](=O)[O-])cn1,-1.64%
6,Cc1cccc(C(=O)Nc2nnc(S(=O)(=O)N(C)Cc3ccco3)s2)c1,14.3%
7,NC(=S)C1COc2ccccc2O1 (stereo not shown),16.9%
8,O=C(NCc1cccs1)c1ccc2ccccc2n1,-9.78%
9,OCCC1CN(C2CCC2)CCN1Cc1ccc(F)c(F)c1 (stereo not shown),5.12%
10,CCOc1ccc(CCNC(=O)CCC(=O)Nc2ccc3nc(N4CCN(C)CC4)cc(C)c3c2)cc1OCC,6.68%
11,CSc1ccccc1NC(=O)c1ccco1,-9.54%
12,O=C1[C@H]2CC3CCC2(O3)[C@@H]2OCCCN12 (stereo partly shown),4.02%
13,O=C(OCc1nnc(-c2ccccc2)o1)c1ccc2c(c1)OCO2,-21.1%
14,NC(=O)C1CCN(C(=O)C2CCC(=O)N(Cc3ccc(Cl)cc3)C2)CC1 (stereo not shown),15.3%
15,COc1ccccc1N(C)S(=O)(=O)c1ccc(C(=O)N2CCCc3ccccc32)cc1,-5.85%
16,Cc1cc2oc(=O)sc2cc1NS(=O)(=O)c1ccccc1,18.9%
17,COc1ccc(CNC(=O)C(c2ccccc2F)N(C(=O)c2csnn2)C2CC2)cc1 (stereo not shown),0.921%
18,CCOC(=O)c1c[nH]c2c(Cl)c(Cl)ccc2c1=O,9.54%
19,CC1CCc2sc(C(=O)NCc3ccccn3)cc2C1 (stereo not shown),-5.07%
20,Cc1cc(C)cc(NC(=O)N2c3ccccc3NC(=O)CC2C)c1 (stereo not shown),3.82%
21,O=C(CN1CCC(Cc2ccccc2)CC1)Nc1ccc2c(c1)OCCO2,-42.8%
22,CC(C)NC(=O)CCn1c(=S)oc2ccccc21,5.78%
23,O=C(CC(c1ccccc1)c1ccccc1)Nc1ncn[nH]1,0.0287%

row,SMILES,"hERG current change (%, negative = inhibition) at 10uM"
1,Cn1cc(S(=O)(=O)NCc2ccco2)c(=O)n(C)c1=O,3.03%
2,C[C@H](NC(=O)c1ccco1)C(=O)Nc1cccc([N+](=O)[O-])c1,9.41%
3,CC1(C)C2CCC(C2)C1(C)N=C1OC(CCl)CS1 (stereo not shown),5.72%
4,OCCN=C(c1ccccc1)C12CN3CN(CN(C3)C1)C2,-12.3%
5,Cc1[nH]c2ccccc2c1C(=O)C(=O)NCCCn1ccnc1,10.5%
6,Fc1ccc2nc3c(nc2c1)CCCC3,15.3%
7,Cc1oc2c(cc(NS(=O)(=O)c3cccs3)c3ccccc32)c1C(=O)OC(C)C,10.8%
8,CC(C)=CCc1cc([C@@H]2CC(=O)c3ccc(O)c(CC=C(C)C)c3O2)ccc1O,0.959%
9,CCOc1ccc(OCC)c(NS(=O)(=O)c2cn(C)cn2)c1,19.8%
10,O=C1CS/C(=N/N=C/c2ccco2)N1Cc1ccc(F)cc1,6.46%
11,COc1ccc(C(=O)C2CCCN(C(=O)c3cc(C4CC4)[nH]n3)C2)c(C)c1 (stereo not shown),17.1%
12,COCCNC(=O)CN(c1ccc(C)cc1)S(=O)(=O)c1ccccc1,9.01%
13,CCCS(=O)(=O)N1CCN(C2Cc3ccccc3C2)CC1.O=C(O)C(=O)O,-9.04%
14,CN(C)/C=N/c1c(C#N)cnn1-c1ccc(C(F)(F)F)cn1,4.98%
15,CCOC(=O)CNC(=O)CSc1nnc(NC(=O)c2ccc(C)cc2)s1,-3.25%
16,Cc1ccc(S(=O)(=O)Nc2ccc(Br)cc2C(NCC(=O)O)c2ccccc2)cc1 (stereo not shown),-12.4%
17,COc1ccc(C(=O)CCS(=O)(=O)c2ccc(C)cc2)cc1,8.78%
18,COC(=O)c1ccc(Cl)c(NS(=O)(=O)c2ccc3c(c2)OCCO3)c1,-25.4%
19,O=C1c2ccccc2C(=O)N1Cc1cc(-c2ccccc2Cl)no1,-2%
20,O=C(Nc1ccccc1-c1nnn(CC(=O)N2CCCc3ccccc32)n1)c1ccc(Cl)cc1,8.92%
21,COc1ccc(OC)c(CN2CCN(CCCc3ccccc3)C(CCO)C2)c1 (stereo not shown),-68.6%
22,Cc1ccc(/C=C2/Sc3ccc(C(=O)N4CCN(C)CC4)cc3NC2=O)cc1,-2.6%
